In paper PMC4749642, “Evaluation of anticonvulsant and antinociceptive properties of new N-Mannich bases derived from pyrrolidine-2,5-dione and 3-methylpyrrolidine-2,5-dione” (Naunyn-Schmiedeberg's Archives of Pharmacology, 2015):
Like-named read-outs stand apart in the source and are kept apart here.

Tests used:
[1] = tested on: voltage-sensitive sodium channel (site 2); conditions: [3H]batrachotoxin, rat cerebral cortex, cited from earlier work
[2] = tested on: voltage-sensitive sodium channel (site 2); conditions: [3H]batrachotoxin, rat cerebral cortex

Compound	% inhibition of control specific binding ([2]; 10 μM)	% inhibition of control specific binding ([2]; 100 μM)	other results
NC(=O)N1c2ccccc2C=Cc2ccccc21 [Carbamazepine]	–	–	% inhibition of control specific binding ([1]; 10 μM, ref Kamiński et al. [2015b]): 4.6%; % inhibition of control specific binding ([1]; 100 μM, ref Kamiński et al. [2015b]): 17.4%
CC1CC(=O)N(CN2CCN(c3ccc(Cl)c(Cl)c3)CC2)C1=O (centres unmarked) [Compound 12, N-[{4-(3,4-dichlorophenyl)-piperazin-1-yl}-methyl]-3-methylpyrrolidine-2,5-dione]	49.1%	85.8%	–
O=C1CCC(=O)N1CN1CCN(c2ccc(Cl)c(Cl)c2)CC1 [Compound 23, N-[{4-(3,4-dichlorophenyl)-piperazin-1-yl}-methyl]-pyrrolidine-2,5-dione]	49.4%	89.9%	–
O=C1NC(=O)C(c2ccccc2)(c2ccccc2)N1 [Phenytoin, reference compound]	–	–	% inhibition of control specific binding ([1]; 10 μM, ref Rybka et al. [2015]): 10.6%; % inhibition of control specific binding ([1]; 100 μM, ref Rybka et al. [2015]): 21.2%
